Consider 13 compounds from paper PMC8560763, “Roles of metal ions in the selective inhibition of oncogenic variants of isocitrate dehydrogenase 1” (Communications Biology, 2021).

“And” between values parts separate entries of the source, which are not always exact repeats. Equal values may be shown once.

Assay [1] deals with R132H IDH1. The note with it: cited from earlier work; for IC50: read-out: half-maximal inhibitory concentration (IC50s).
The target of assay [2] is T1, R132H IDH1 (Homo sapiens, UniProt O75874, R132H).
T1 construct: made in house; host or cells: Escherichia coli BL21(DE3) pLyS
T1 sequence (O75874 2-414 R132H): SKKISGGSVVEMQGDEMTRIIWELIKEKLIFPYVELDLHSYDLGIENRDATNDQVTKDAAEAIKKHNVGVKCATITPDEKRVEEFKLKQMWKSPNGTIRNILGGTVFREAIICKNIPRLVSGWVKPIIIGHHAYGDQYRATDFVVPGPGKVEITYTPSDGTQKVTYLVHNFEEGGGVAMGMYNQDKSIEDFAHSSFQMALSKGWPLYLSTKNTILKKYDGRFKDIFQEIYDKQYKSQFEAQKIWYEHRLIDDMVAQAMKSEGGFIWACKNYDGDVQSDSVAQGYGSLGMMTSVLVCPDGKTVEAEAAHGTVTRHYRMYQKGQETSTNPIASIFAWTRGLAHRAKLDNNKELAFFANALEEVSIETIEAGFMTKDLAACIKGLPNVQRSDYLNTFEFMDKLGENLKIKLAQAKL
Put plainly: Absorbance assay: effect of metal ions on catalysis and inhibition of R132H IDH1. Type of assay: biochemical. The settings on record: for inhibition by metal ion: R132H IDH1, metal ions 10 mM in the presence of 10 mM Mg^2+.

Assay [3] deals with T1, R132H IDH1. Put plainly: Absorbance assay: kinetics of reductive reaction (2OG to 2HG) by R132H IDH1. Type of assay: biochemical.
The target in assay [4] is T1, R132H IDH1. Put plainly: Differential scanning fluorimetry (DSF) thermal shift, R132H IDH1. Type of assay: binding. The settings on record: 50 mM Tris-HCl, pH 7.5; for thermal stabilisation by cosubstrates: R132H IDH1, 0.125—4 mM.
Assay [5] deals with T1, R132H IDH1. In words: Absorbance assay: kinetics of oxidative reaction (isocitrate to 2OG) by R132H IDH1. Type of assay: biochemical.
The mark [6] stands for this setting: R132H IDH1, oxidative reaction with Mn^2+ (10 mM MnCl2).

`C[C@H](O)c1cccc(NC(=O)c2nn(Cc3ccc(F)cc3)c3c2CN(C(=O)c2ccc[nH]2)C[C@H]3C)c1` [GSK321]: in the assay with R132H IDH1 [1], the mode of inhibition result is “competitive with respect to the substrate 2OG, and noncompetitive with respect to NADPH”; the IC50 was below 100 nM.
Regarding `[Na+]` [Na^+], the “inhibition by metal ion” value on R132H IDH1 [2] is given as “inhibited”.
The same measure, in the same setting: the result for `[Cl-].[Cl-].[Zn+2]` [Zn^2+, ZnCl2] reads “inhibitory”.
As for `[Cl-].[Cl-].[Sr+2]` [Sr^2+, SrCl2], the “inhibition by metal ion” value on R132H IDH1 [2] is “inhibiting”.
In the case of `Cc1ccccc1C(C(=O)NC1CCCC1)N(C(=O)Cn1cnc2ccccc21)c1cccc(F)c1` (stereo not shown) [ML309], in the assay on R132H IDH1 [1], the mode of inhibition result is on record as “competitive with 2OG” and the IC50 is below 100 nM.
For the compound `[Cl][Cd][Cl]` [Cd^2+, CdCl2], the “inhibition by metal ion” value on R132H IDH1 [2] is listed as “inhibitory”.
Consider `NC(=O)C1=CN([C@@H]2O[C@H](COP(=O)(O)OP(=O)(O)OC[C@H]3O[C@@H](n4cnc5c(N)ncnc54)[C@H](OP(=O)(O)O)[C@@H]3O)[C@@H](O)[C@H]2O)C=CC1` [NADPH], for which the Velocity at R132H IDH1 [3] (Fig. S2k, [NADPH] 3.125 μM) was 0.02509 µM/s and 0.02983 µM/s and 0.0179 µM/s; on R132H IDH1 [3] (Fig. S2k, [NADPH] 6.25 μM), 0.06194 µM/s and 0.063 µM/s and 0.05106 µM/s; at R132H IDH1 [3] (Fig. S2k, [NADPH] 25 μM), 0.2114 µM/s and 0.2116 µM/s and 0.2079 µM/s; at R132H IDH1 [3] (Fig. S2k, [NADPH] 50 μM) it was 0.2271 µM/s and 0.1953 µM/s and 0.2485 µM/s; at R132H IDH1 [3] (Fig. S2k, [NADPH] 100 μM), 0.2482 µM/s and 0.219 µM/s and 0.2464 µM/s; on R132H IDH1 [3] (Fig. S2k, [NADPH] 200 μM) it was 0.2183 µM/s and 0.293 µM/s and 0.2158 µM/s. Also, the Velocity is 0.2857 µM/s and 0.2293 µM/s and 0.2699 µM/s on R132H IDH1 [3] (Fig. S2k, [NADPH] 400 μM); 0.04817 µM/s and 0.03132 µM/s and 0.02448 µM/s on R132H IDH1 [3] (Fig. S3h, MnCl2 as metal, [NADPH] 6.25 μM); 0.2282 µM/s and 0.2424 µM/s and 0.2506 µM/s on R132H IDH1 [3] (Fig. S3h, MnCl2 as metal, [NADPH] 25 μM); 0.293 µM/s and 0.3151 µM/s and 0.2403 µM/s at R132H IDH1 [3] (Fig. S3h, MnCl2 as metal, [NADPH] 50 μM); 0.3353 µM/s and 0.3893 µM/s and 0.3022 µM/s at R132H IDH1 [3] (Fig. S3h, MnCl2 as metal, [NADPH] 100 μM); 0.3656 µM/s and 0.3853 µM/s and 0.3403 µM/s on R132H IDH1 [3] (Fig. S3h, MnCl2 as metal, [NADPH] 200 μM). Moreover, on R132H IDH1 [3] (Fig. S3h, MnCl2 as metal, [NADPH] 400 μM), the Velocity was 0.383 µM/s and 0.4209 µM/s and 0.3522 µM/s. In addition, the “thermal stabilisation by cosubstrates” value on R132H IDH1 [4] is “stabilise”.
As to `[Cl][Ni][Cl]` [Ni^2+, NiCl2], the “inhibition by metal ion” value at R132H IDH1 [2] is “inhibitory”.
For the compound `[Cl][Mn][Cl]` [MnCl2], the “effect of metal ion on catalysis” value on R132H IDH1 [2] (R132H IDH1, metal ions 10 mM) was “promoted”. In addition, the Velocity at R132H IDH1 [3] (Fig. S3i, [MnCl2] 97.6562 μM) is 0.03678 µM/s and 0.04058 µM/s and 0.04458 µM/s; on R132H IDH1 [3] (Fig. S3i, [MnCl2] 195.312 μM) it was 0.1163 µM/s and 0.1054 µM/s and 0.08996 µM/s; at R132H IDH1 [3] (Fig. S3i, [MnCl2] 390.625 μM), 0.2431 µM/s and 0.2191 µM/s and 0.2481 µM/s; on R132H IDH1 [3] (Fig. S3i, [MnCl2] 781.25 μM) it was 0.3293 µM/s and 0.3111 µM/s; at R132H IDH1 [3] (Fig. S3i, [MnCl2] 1562.5 μM) it was 0.3658 µM/s and 0.3408 µM/s and 0.3418 µM/s; on R132H IDH1 [3] (Fig. S3i, [MnCl2] 3125 μM) it was 0.3696 µM/s and 0.346 µM/s and 0.3834 µM/s. The Velocity was 0.3348 µM/s and 0.3914 µM/s and 0.3726 µM/s on R132H IDH1 [3] (Fig. S3i, [MnCl2] 6250 μM); 0.03395 µM/s and 0.03606 µM/s and 0.03632 µM/s on R132H IDH1 [5] (Fig. S3f, [MnCl2] 156.25 μM); 0.04764 µM/s and 0.03843 µM/s and 0.04264 µM/s on R132H IDH1 [5] (Fig. S3f, [MnCl2] 312.5 μM); 0.07633 µM/s and 0.05185 µM/s and 0.07475 µM/s on R132H IDH1 [5] (Fig. S3f, [MnCl2] 625 μM); 0.1927 µM/s and 0.1814 µM/s and 0.1819 µM/s on R132H IDH1 [5] (Fig. S3f, [MnCl2] 2500 μM); 0.258 µM/s and 0.2416 µM/s and 0.2414 µM/s at R132H IDH1 [5] (Fig. S3f, [MnCl2] 5000 μM). The Velocity on R132H IDH1 [5] (Fig. S3f, [MnCl2] 10000 μM) was 0.2935 µM/s and 0.2482 µM/s; at R132H IDH1 [5] (Fig. S3f, [MnCl2] 20000 μM) it was 0.2324 µM/s and 0.2377 µM/s and 0.2408 µM/s. In addition, the “fold difference in KM between R132H IDH1 and wt IDH1” value at R132H IDH1 [3] (MnCl2 substituted for MgCl2) worked out at 210 fold. Also, the maximal velocity (Vmax) is 421 ± 18 nM/s at R132H IDH1 [3] (R132H IDH1, reductive reaction (2OG to 2HG) with Mn^2+ (10 mM MnCl2)) and 290 ± 12 nM/s at R132H IDH1 [5] (setting [6]). Further, the Km at R132H IDH1 [3] (R132H IDH1, reductive reaction (2OG to 2HG) with Mn^2+ (10 mM MnCl2), read-out: KM) came to 422 ± 67 µM; on R132H IDH1 [5] (setting [6]), 1640 µM. The catalytic constant (kcat) at R132H IDH1 [3] (R132H IDH1, reductive reaction with Mn^2+) came to 1.04 ± 0.05 s⁻¹; on R132H IDH1 [5] (R132H IDH1, oxidative reaction with Mn^2+) it was 0.78 ± 0.08 s⁻¹. On R132H IDH1 [4] (R132H IDH1, divalent metal ions (5 mM)), the “thermal shift (shift in Tm)” value is “destabilise”.
For the compound `NC(=O)c1ccc[n+](C2OC(COP(=O)(O)OP(=O)([O-])OCC3OC(n4cnc5c(N)ncnc54)C(OP(=O)(O)O)C3O)C(O)C2O)c1` (stereo not shown) [NADP^+], the “thermal stabilisation by cosubstrates” value on R132H IDH1 [4] is reported as “stabilise”. Also, the Velocity on R132H IDH1 [5] (Fig. S3e, MnCl2 as metal, [NADP+] 9.375 μM) is 0.0537 µM/s and 0.04133 µM/s and 0.04633 µM/s; at R132H IDH1 [5] (Fig. S3e, MnCl2 as metal, [NADP+] 18.75 μM) it was 0.08186 µM/s and 0.06791 µM/s and 0.07949 µM/s; on R132H IDH1 [5] (Fig. S3e, MnCl2 as metal, [NADP+] 37.5 μM) it was 0.114 µM/s and 0.1034 µM/s and 0.09713 µM/s; on R132H IDH1 [5] (Fig. S3e, MnCl2 as metal, [NADP+] 75 μM) it was 0.1466 µM/s and 0.1366 µM/s and 0.1263 µM/s; at R132H IDH1 [5] (Fig. S3e, MnCl2 as metal, [NADP+] 150 μM) it was 0.1916 µM/s and 0.1624 µM/s and 0.1732 µM/s; at R132H IDH1 [5] (Fig. S3e, MnCl2 as metal, [NADP+] 300 μM), 0.2479 µM/s and 0.2264 µM/s and 0.2166 µM/s. The Velocity at R132H IDH1 [5] (Fig. S3e, MnCl2 as metal, [NADP+] 600 μM) was 0.3103 µM/s and 0.2782 µM/s and 0.2574 µM/s; on R132H IDH1 [5] (Fig. S3e, MnCl2 as metal, [NADP+] 1200 μM) it was 0.2951 µM/s and 0.2651 µM/s and 0.2961 µM/s; at R132H IDH1 [5] (Fig. S2h, [NADP+] 4.6875 μM), 0.01246 µM/s and 0.01299 µM/s and 0.01018 µM/s; at R132H IDH1 [5] (Fig. S2h, [NADP+] 18.75 μM), 0.03141 µM/s and 0.02737 µM/s and 0.02492 µM/s; at R132H IDH1 [5] (Fig. S2h, [NADP+] 37.5 μM) it was 0.03246 µM/s and 0.03299 µM/s and 0.03369 µM/s; on R132H IDH1 [5] (Fig. S2h, [NADP+] 75 μM), 0.03861 µM/s and 0.03088 µM/s and 0.03352 µM/s. Also, the Velocity on R132H IDH1 [5] (Fig. S2h, [NADP+] 150 μM) was 0.04141 µM/s and 0.03474 µM/s and 0.03738 µM/s; at R132H IDH1 [5] (Fig. S2h, [NADP+] 300 μM) it was 0.04018 µM/s and 0.03562 µM/s and 0.03773 µM/s; at R132H IDH1 [5] (Fig. S2h, [NADP+] 600 μM), 0.04247 µM/s and 0.04194 µM/s and 0.03808 µM/s; on R132H IDH1 [5] (Fig. S2h, [NADP+] 1200 μM), 0.04247 µM/s and 0.03632 µM/s and 0.04124 µM/s; at R132H IDH1 [5] (Fig. S2h, [NADP+] 2400 μM) it was 0.04001 µM/s and 0.04054 µM/s and 0.0372 µM/s.
For `[Cl-].[Cl-].[Co+2]` [Co^2+, CoCl2], the “inhibition by metal ion” value at R132H IDH1 [2] is on record as “inhibitory”.
`[Ba+2].[Cl-].[Cl-]` [Ba^2+, BaCl2]: the “inhibition by metal ion” value at R132H IDH1 [2] is recorded as “inhibiting”.
With `C[C@H]1C[C@@H](n2c(Nc3ccc(OC(F)(F)F)cc3)nc3cc(CCC(=O)O)ccc32)CC(C)(C)C1` [BAY-1436032], the IC50 in the assay with R132H IDH1 [1] was below 100 nM.
